Results taken from patent US5770618A, “Method for increasing the solubility of clemastine and pharmaceutical compositions prepared therefrom” (Nastech Pharmaceutical Company, Inc., priority 1996, dated 1998).
Structures can show the parent of a compound that is named as a salt. Where two headings read alike, the source gives them in different places.

Tests used:
[1] = 24 h
physchem [2] = details: water
physchem [3] = assay: physchem

Clemastine Fumarate Solubility ([1]; sodium fumarate 0.25 m, pH 6.2) [µg/mL]	Clemastine Fumarate Solubility ([1]; sodium fumarate 0.5 m, pH 6.4) [µg/mL]	Clemastine Fumarate Solubility ([1]; sodium maleate 1.0 m, pH 6.8) [µg/mL]	solubility thermodynamic at 24 h (physchem [2]) [µg/mL]	solubility at 24 h (physchem [2]; pH 3.9, water) [µg/mL]	Clemastine Fumarate Solubility (acetate buffer 0.5 m, pH 5.7) [µg/mL]	Clemastine Fumarate Solubility (citrate buffer 0.5 m, pH 5.8) [µg/mL]	solubility thermodynamic at 24 h (physchem [3]; aqueous carboxylic acid salts 0.25m) [µg/mL]	solubility thermodynamic at 24 h (physchem [3]; aqueous carboxylic acid salts 0.5m) [µg/mL]	solubility at 24 h (physchem [3]; sodium lactate 0.25 m, pH 5, Clemastine Fumarate Solubility) [µg/mL]	solubility at 24 h (physchem [3]; sodium lactate 0.5 m, pH 5.1, Clemastine Fumarate Solubility) [µg/mL]	solubility at 24 h (physchem [3]; sodium tartarate 0.25 m, pH 5.1, Clemastine Fumarate Solubility) [µg/mL]	SMILES
41400	82100	152600										CN1CCC[C@@H]1CCO[C@](C)(c1ccccc1)c1ccc(Cl)cc1 [clemastine]
			< 3000	< 3000	24000	47000	5040 to 44200	8590 to 82100	5000	8600	9000	CN1CCC[C@@H]1CCO[C@](C)(c1ccccc1)c1ccc(Cl)cc1 [Clemastine Fumarate, clemastine fumarate]
